Results published in US20250282868A1 (ITEOS BELGIUM, published 2025).

T1: human TREM2 (human, UniProt Q9NZC2 19-230)
T1 sequence: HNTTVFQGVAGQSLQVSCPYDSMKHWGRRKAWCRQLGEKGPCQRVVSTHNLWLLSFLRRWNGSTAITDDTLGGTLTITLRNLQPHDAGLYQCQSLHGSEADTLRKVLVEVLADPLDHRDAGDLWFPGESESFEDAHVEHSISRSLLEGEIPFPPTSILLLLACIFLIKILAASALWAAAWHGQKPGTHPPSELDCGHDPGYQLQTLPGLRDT

T2: cynomolgus TREM2 (cynomolgus, UniProt A0A2K5UY34 49-260)
T2 construct: also called cynoTREM2; cTREM2
T2 sequence: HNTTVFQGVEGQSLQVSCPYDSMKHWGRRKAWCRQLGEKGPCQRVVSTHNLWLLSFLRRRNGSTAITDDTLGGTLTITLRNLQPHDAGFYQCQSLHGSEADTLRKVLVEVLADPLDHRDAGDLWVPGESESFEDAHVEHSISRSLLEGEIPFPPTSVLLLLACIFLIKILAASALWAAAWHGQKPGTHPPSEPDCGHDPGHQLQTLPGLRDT

T3: mouse TREM2 (mouse, UniProt Q99NH8 19-227)
T3 construct: whole, on cells
T3 sequence (looked up): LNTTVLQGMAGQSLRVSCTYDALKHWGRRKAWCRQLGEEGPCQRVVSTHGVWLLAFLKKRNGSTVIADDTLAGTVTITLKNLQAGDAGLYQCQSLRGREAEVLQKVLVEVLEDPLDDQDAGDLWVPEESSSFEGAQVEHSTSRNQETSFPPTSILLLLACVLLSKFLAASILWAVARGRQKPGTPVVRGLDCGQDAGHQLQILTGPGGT


Legend:
human TREM2 [1] = target: T1, human TREM2; test: cell-based or functional assay
human TREM2 [2] = target: T1, human TREM2; test: flow cytometry, M2a-like macrophages
Experimental: (§1) M2a-like macrophages were produced in vitro from monocytes of healthy donors. Briefly, after PBMCs isolation from peripheral blood using Lymphoprep™ gradient, CD14+ cells were purified and seeded in presence of MCSF 50 ng/ml for 6 days. Macrophages were then cultured with IL-13 and IL-4 at a concentration of 20 ng/ml for two additional days and then used for a cell-based binding assay.
(§2) M2a-like macrophages were incubated with anti-TREM2 antibodies (dose-response curve with 11 concentrations from 10 μg/ml to 0.0001 μg/ml) for 30 min at 4° C. After washing, bound antibodies were detected with a secondary anti-human IgG Fc PE-labelled for 30 min at 4° C. Fluorescence intensity was measured by flow cytometry. Equilibrium dissociation constant (kD) was then calculated for each antibody using median MFI normalized over isotype control.

human TREM2 [3] = target: T1, human TREM2; test: flow cytometry, THP-1 WT cells, 10 ug/ml
Experimental: (§3) In order to test specificity of selected antibodies to TREM2, binding was tested by flow cytometry on THP-1 TREM2 KO (clone, produced using CRISPR technology in house) and on THP-1 WT. Cells were incubated with selected anti-TREM2 antibodies (final concentration of 10 μg/ml) for 30 min at 4° C. After washing, bound antibodies were detected with a secondary anti-human IgG Fc PE-labelled for 30 min at 4° C. Fluorescence intensity was measured by flow cytometry.

cynomolgus TREM2 [4] = target: T2, cynomolgus TREM2; test: MFI on CHO cells over-expressing cynoTREM2-DAP12
Experimental: (§4) Cross-reactivity of anti-TREM2 antibodies to cynomolgus TREM2 (cynoTREM2) was assessed using CHO over-expressing cynoTREM2-DAP12 (Table 22). Benchmark antibodies, AB52 and PN-37012, were examined for comparison.

human TREM2 [5] = target: T1, human TREM2; test: flow cytometry, M2a-like macrophages, dose-response
Experimental: as §1, §2

mouse TREM2 [6] = target: T3, mouse TREM2; test: MFI on CT26 cells over-expressing mouse TREM2 and DAP12
Experimental: (§5) Cross-reactivity to mouse TREM2 was assessed using CT26 cells over-expressing mouse TREM2 and DAP12 (Table 23). Eight anti-TREM2 antibodies and both benchmark antibodies were considered cross-reactive to mouse TREM2 (MFI higher than isotype control and fold change of CT26-TREM2 over the CT26 Empty Vector higher than 5). The remaining anti-TREM2 antibodies were considered as being low to not cross-reactive (fold change less than 5). EOS006171 was not tested due to clear non-cross-reactivity preliminary data by octet (data not shown).

human TREM2 [7] = target: T1, human TREM2; test: flow cytometry, THP-1 WT vs THP-1 TREM2 KO cells, 10 ug/ml
Experimental: as §3

cynomolgus TREM2 [8] = target: T2, cynomolgus TREM2; test: MFI on CHO cells over-expressing cynoTREM2-DAP12 vs CHO empty vector
Experimental: as §4

mouse TREM2 [9] = target: T3, mouse TREM2; test: MFI on CT26 cells over-expressing mouse TREM2 and DAP12 vs CT26 empty vector
Experimental: as §5

mouse TREM2 [10] = target: T3, mouse TREM2; test: MFI on CT26 cells over-expressing mouse TREM2 and DAP12; column 'Considered cross-reactive'
Experimental: as §5

human TREM2 [11] = target: T1, human TREM2; test: flow cytometry, competition with LDL-Alexafluor-488 on CHO cells overexpressing human TREM2/DAP12; only 1 value generated
Experimental: Exemplary anti-TREM2 antibodies were tested in order to characterize their ability to enter in competition with TREM2 ligand, LDL, on CHO overexpressing human TREM2/DAP12. Antibodies (dose response curves from 66.65 nM to 0.07 nM) were incubated for 30 min with cells in a soluble fashion, followed by an incubation with LDL coupled with Alexafluor-488 (at 1 μg/mL final) for 30 min. Finally, after 2 washes, cells were acquired on flow cytometer. The median MFI of Alexafluor-488 was used to plot the graphs. Benchmark antibody MOR044746 was used as positive control.

human TREM2 [12] = target: T1, human TREM2; test: cell-based or functional assay; remark: listed apart in the source

Row | Fold over isotype control at 66 nM (human TREM2 [1]) [fold] | pSYK/TotSYK EC50 (nM) (human TREM2 [1]) | Fold over isotype (human TREM2 [2]) [fold] | Fold over isotype control THP1 WT (human TREM2 [3]) [fold] | Binding to CHO-cTREM2 MFI (cynomolgus TREM2 [4]) [MFI] | Kd (human TREM2 [5]) [nM] | Binding to CT26-TREM2 MFI (mouse TREM2 [6]) [MFI] | MFI Fold change (THP-1 WT over THP-1 TREM2 KO) (human TREM2 [7]) [fold] | MFI Fold change (CHO-cTREM2 over CHO-EV) (cynomolgus TREM2 [8]) [fold] | MFI Fold change (CT26-TREM2 over CT26-EV) (mouse TREM2 [9]) [fold] | IC50 (human TREM2 [11]) [nM] | IC50, efferocytosis of pHrodo-labelled apoptotic Skov-3 cells by M2a-like macrophages (Incucyte) (human TREM2 [12]) [nM] | Binder | binding result (mouse TREM2 [10])
1 | 2.52 | 14.5 | 11.4 | 3.2 | 21200 | 3.13 | 8700 | 3.5 | 275 | 7.3 | – | – | EOS006179 (antibody, V domains shown) VH: [about 100 residues omitted here]LRGGYEVGPTFDPWGQGTLVTVSS VL: DIVMTQSPDSLAVSLGERATINCKSSQSVLYSSNNKNYLAWYQQKPGQPPKLLIYWASTRESGVPDRFSGSGSGTDFTLTISSLQAEDVAVYYCQQHYIWPITFGGGTKVEIK | –
2 | 2.43 | 4270 | 1.9 | 2.2 | 5140 | 3.45 | 649 | 1.3 | 125 | 1.8 | – | – | EOS006169 (antibody, V domains shown) VH: [about 100 residues omitted here]DRGGYEVGPTFDPWGQGTLVTVSS VL: DIVMTQSPDSLAVSLGERATINCKSSQSVLYSSNNKNYLAWYQQKPGQPPKLLIYWASTRESGVPDRFSGSGSGTDFTLTISSLQAEDVAVYYCQQHYLTPITFGGGTKVEIK | no binding (tested: fold change less than 5)
3 | 0.928 | – | – | – | – | – | – | – | – | – | 0.203 | – | EOS004284 (antibody, human IgG1, kappa) heavy: EVQLVESGGGLVQPGRSLRLSCTASGFTFDDYTMSWFRQAPGKGLEWVGFIGSKAYSATTEYTASVKGRFTISRDGSKSIAYLQMNSLKTEDTAVYYCARGKRYSYTYWTPAFDVWGQGTLVTVSS[human IgG1 constant region omitted here] light: DIQMTQSPSSLSASVGDRVTITCQASQDITNYLNWYQQKPGKAPKLLIYDASNLETGVPSRFSGSGSGTDFTFTISSLQPEDIATYYCQEYDSYITFGGGTKVEIKRTVAAPSVFIFPPSDEQLKSGTASVVCLLNNFYPREAKVQWKVDNALQSGNSQESVTEQDSKDSTYSLSSTLTLSKADYEKHKVYACEVTHQGLSSPVTKSFNRGEC | –
4 | – | – | – | – | – | – | – | – | – | – | – | 0.36 | EOS006215 (antibody, human IgG1, kappa) heavy: EVQLVESGGGLVQPGRSLRLSCTASGFTFDDYTMSWFRQAPGKGLEWVGFIGSKAYSATTEYTASVKGRFTISRDGSKSIAYLQMNSLKTEDTAVYYCARGKRYSYTYWTPAFDVWGQGTLVTVSS[human IgG1 constant region with changes omitted here] light: DIQMTQSPSSLSASVGDRVTITCQASQDITNYLNWYQQKPGKAPKLLIYDASNLETGVPSRFSGSGSGTDFTFTISSLQPEDIATYYCQEYDSYITFGGGTKVEIKRTVAAPSVFIFPPSDEQLKSGTASVVCLLNNFYPREAKVQWKVDNALQSGNSQESVTEQDSKDSTYSLSSTLTLSKADYEKHKVYACEVTHQGLSSPVTKSFNRGEC | –
